Measured values taken from PMC4336329 (PLoS ONE, 2015).
Screen size: about 310,000 compounds; about 14,000 (4.5%) showed an effect of 50% or more. Effects have a minus sign here. Some of the results follow.

target: human ether-à-go-go-related gene (hERG) potassium channel (human, UniProt Q12809); experiment: primary screen, population patch clamp on CHO cells stably expressing hERG
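Note: peak tail current of the secondary pulse compared with the same well before compound.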

human ether-à-go-go-related gene (hERG) potassium channel, sequence (Q12809 whole entry, looked up): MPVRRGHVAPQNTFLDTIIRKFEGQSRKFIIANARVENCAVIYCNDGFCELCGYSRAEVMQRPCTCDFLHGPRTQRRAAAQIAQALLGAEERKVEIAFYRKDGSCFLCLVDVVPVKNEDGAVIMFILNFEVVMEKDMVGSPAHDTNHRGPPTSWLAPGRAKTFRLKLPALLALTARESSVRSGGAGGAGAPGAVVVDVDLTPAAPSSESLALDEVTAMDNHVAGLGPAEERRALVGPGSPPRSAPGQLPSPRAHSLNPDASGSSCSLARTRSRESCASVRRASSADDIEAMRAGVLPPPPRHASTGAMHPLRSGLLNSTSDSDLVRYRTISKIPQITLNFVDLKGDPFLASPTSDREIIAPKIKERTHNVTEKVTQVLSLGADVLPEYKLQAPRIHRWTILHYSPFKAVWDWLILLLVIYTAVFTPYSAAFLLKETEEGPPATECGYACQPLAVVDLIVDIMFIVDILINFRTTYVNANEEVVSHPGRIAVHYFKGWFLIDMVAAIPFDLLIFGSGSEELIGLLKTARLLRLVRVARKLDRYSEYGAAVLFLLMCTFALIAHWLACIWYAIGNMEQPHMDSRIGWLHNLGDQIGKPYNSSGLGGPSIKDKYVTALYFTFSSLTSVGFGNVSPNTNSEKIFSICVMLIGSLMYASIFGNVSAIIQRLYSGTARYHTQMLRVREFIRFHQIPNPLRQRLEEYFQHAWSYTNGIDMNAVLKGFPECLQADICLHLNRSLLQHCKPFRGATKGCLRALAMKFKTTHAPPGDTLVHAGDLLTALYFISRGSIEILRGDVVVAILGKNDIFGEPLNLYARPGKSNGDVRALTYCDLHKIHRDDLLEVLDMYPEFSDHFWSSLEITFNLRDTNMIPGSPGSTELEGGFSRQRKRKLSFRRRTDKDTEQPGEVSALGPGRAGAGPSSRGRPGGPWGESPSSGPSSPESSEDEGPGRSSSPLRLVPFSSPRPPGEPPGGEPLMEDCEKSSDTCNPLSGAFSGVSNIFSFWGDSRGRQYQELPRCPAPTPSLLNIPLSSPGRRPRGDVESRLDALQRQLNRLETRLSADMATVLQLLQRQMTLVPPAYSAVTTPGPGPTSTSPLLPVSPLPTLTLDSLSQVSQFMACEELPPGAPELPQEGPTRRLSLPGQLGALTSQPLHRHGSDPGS

| SMILES | hERG current change (%, negative = inhibition) at 10uM [%] |
| --- | --- |
| O=C(CNC(=O)c1ccc(Br)cc1)NCC(=O)OCC(=O)c1ccc(F)cc1 | 9.12 |
| CNC(=S)N(Cc1ccc(OC)cc1)C1CC(=O)N(c2ccc(OC)cc2)C1=O (stereo not shown) | -33 |
| Cc1ccc(Cn2c(S(=O)(=O)O)nc3ccccc32)cc1 | 11.3 |
| C/C(CCC(C)C)=N\Nc1ccc(S(N)(=O)=O)cc1[N+](=O)[O-] | -26.6 |
| COCCCNC(=O)c1ccc(Cn2c(=O)[nH]c3ccccc3c2=O)cc1 | 15.7 |
| CCN1C(=O)[C@@H]2Cc3c([nH]c4ccccc34)C(c3ccc(OC)cc3)N2C1=S (stereo partly shown) | 12.2 |
| CCc1oc2c(C)c(O)ccc2c(=O)c1-c1ccc2ccccc2n1 | 5.95 |
| Cc1ccc(C2=NN=C(NC(=O)CSc3nnc4c5ccccc5n(C)c4n3)SC2)cc1 | 8.81 |
| Fc1ccccc1Nc1nc2ccccc2n2nnnc12 | 7.8 |
| O=C(Nc1cccnc1)c1ccc(N2CCCC2)c([N+](=O)[O-])c1 | 2.01 |
| CCOc1ccc(CNC(=O)CCCOc2cc(=O)n(C)c3ccccc23)cc1 | -22 |
| CN(CC(=O)Nc1ccc(F)cc1)C(=O)COC(=O)COc1ccc(C#N)cc1 | -34.4 |
| CCOc1ccc(NC(=S)Nc2cccc3ccccc23)cc1 | 17.9 |
| CC(C)C(=O)Nc1ccc2c(c1)nc(CCN1CCN(c3ccccc3)CC1)n2C | -40.4 |
| CCc1onc(C)c1C(=O)Nc1ccc(N2CCOCC2)cc1 | 15 |
| Cc1cc(C(=O)Nc2ccncc2)ccc1[N+](=O)[O-] | -8.79 |
| CC1CCN(c2ccc(C(=O)NCc3cccs3)cn2)CC1 | 4.25 |
| CC1(c2ccc3noc(-c4cccc(F)c4)c3c2)OCCO1 | 11.5 |
| COC(=O)c1cn(C(=O)c2cc(OC)c(OC)c(OC)c2)c2ccccc12 | 4.7 |
| CCCN(CCC)c1nc(N)nc(-c2cc(Cl)ccc2OC)n1 | 14.1 |
| COc1ccc(CNC(=O)Cc2c(C(=O)O)[nH]c3ccccc23)cc1 | 2.83 |
| Cc1cccn2c(=O)c3cc(C(=O)O)n(C)c3nc12 | 6.65 |

| SMILES | hERG current change (%, negative = inhibition) at 10uM [%] |
| --- | --- |
| CCOc1cccc2sc(N(CCN(CC)CC)C(=O)c3cccc([N+](=O)[O-])c3)nc12.Cl | -75 |
| O=C(NCCS(=O)(=O)c1ccc(Br)cc1)c1ccc(Cl)cc1 | -2.62 |
| CS(=O)(=O)N1CCN(c2ccc(C(=O)NC3C4CC5CC(C4)CC3C5)cc2[N+](=O)[O-])CC1 (stereo not shown) | -13.5 |
| CCNC(=S)N/N=C/c1c(C)nn(-c2cccc(Cl)c2)c1Cl | -4.28 |
| O=Cc1ccc(-n2nncc2-c2ccc([N+](=O)[O-])cc2)cc1 | -67.3 |
| CCc1ccc(N2CN(CCc3ccccc3)CNC2=S)cc1 | 16.3 |
| Nc1ccc(C(=O)Nc2cccc3ncccc23)cc1 | 15.5 |
| Nc1c2c(nc3ccc(Br)cc13)N(c1ccccc1)CC2.O=C(O)C(=O)O | -21.3 |
| CCN1C(=O)NC(c2ccccc2)(c2ccccc2)C1=O | 14 |
| Cn1c(=O)c(C(=O)NCC2CCCO2)c(O)c2ccccc21 (stereo not shown) | -18.8 |
| Cn1nnc2cc(C(=O)N3CCCCCC3)ccc21 | -9.42 |
| COC(=O)C1=C(C)NC2=C(C(=O)CCC2)C1c1cccc(C)n1 (stereo not shown) | -8.04 |
| COc1ccc(C(=O)c2c(-c3ccsc3)oc3ccc(-c4ccc(OC)cc4)cc23)cc1 | 1.76 |
| COc1ccc(NC(=O)C2CCCN(c3cnccn3)C2)cc1 (stereo not shown) | 12.8 |
| O=C(Nc1c(-c2ccccc2)nc2ccc(Cl)cn12)c1cccs1 | 8.37 |
| CCCCn1c(N)c(N(CCOC)C(=O)C2CCN(c3ncnc4sc(C)c(C)c34)CC2)c(=O)[nH]c1=O | 1.65 |
| C/C(N)=C(/C#N)C(=O)CSc1nnc(COc2ccccc2Cl)o1 | 9.3 |
| COC(=O)c1cc(NS(=O)(=O)c2ccc(N3CCOCC3)c(N)c2)cc(C(=O)OC)c1 | -0.151 |
| COc1ccc(C(=O)Nc2ccccc2C(=O)Nc2ccccn2)cc1 | 12.7 |
| O=C1/C(=C/c2ccc(F)cc2)SC(=S)N1Nc1ncc(C(F)(F)F)cc1Cl | 8.08 |
| CCCCOc1ccc(/C=C/C(=O)NC2=Nc3ccccc3NC(C)=C2C(=O)OCC)cc1OC | 1.66 |
